In the RNAGym collection of RNA variant scans (doi:10.1093/nar/gkz1192):
Read counts are not given, so values of variants with three or more changes are uncertain.

B1: CPEB3 Ribozyme (parent)
chain: UAACAGGGGGCCACAGCAGAAGCGUUCACGUCGCAGCCCCUGUCAGAUUCUGGUGAAUCUGCGAAUUCUGCUGUAUAUCUC

Variants of: B1
Assay: self-cleavage, relative activity (ratio to wild type); higher = more cleavage; in vitro, sequencing
How it was run: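 CPEB3 self-cleaving ribozyme mutant libraries were made by rounds of error-prone PCR, barcoded, and transcribed in vitro with T7 RNA polymerase for 5 hours at 37°C. Cleavage occurred during transcription and a 15 min DNase I step before EDTA stop. RNAs were reverse transcribed with template switching and Illumina-sequenced, with DNA sequencing mapping barcodes to variants. Relative activity is the variant's cleaved/total read fraction divided by wild type's (minimum 5 reads), averaged across three batches.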

| Variant | self-cleavage |
| --- | --- |
| A20G C44A U51A U80C | 0.19 |
| A20G C32A U41C U43C C62U U67C C68U | 0.09 |
| A20G C39G U78C | 0.61 |
| A20G C40A U58C | 0.32 |
| A20G G24A U80A | 0.29 |
| A20C C38U A56G | 0.2 |
| A20C U49C U54C | 0.26 |
| A20G A64C U72A | 0.17 |
| A20G A28U A45G A64G | 0.23 |
| A20G G30U U69A | 0.17 |
| A20G A47U U58A U80A | 0.99 |
| A20G A28G U41C U72C | 0.39 |
| A20G C40U U51C U54A | 0.37 |
| A20G A64G U72A | 0.31 |
| A20G A28G G30A U41A A47U U54A | 0.07 |
| A20G A28C C50A U60A | 0.2 |
| A20G G36U U60A U72A | 0.1 |
| A20G C23U U49G U54C A56U | 0.08 |
| A20G A28U U31C C44G U72C | 0.26 |
| A20G A28U U80A | 0.84 |
| A20G A35G U80C | 1.2 |
| A20G A21G C44A | 0.26 |
| A20G A28C G52A | 0.3 |
| A20G G22C C39U U69A | 0.06 |

| Variant | self-cleavage |
| --- | --- |
| A20G A35C U58C | 0.57 |
| A20G A21G U58A | 0.41 |
| A20G G30A U31G C32U U76A | 0.15 |
| A20G A35U G42A | 0.54 |
| A20G A21G G36A A45G A65G | 0.08 |
| A20C A21G U31C | 0.42 |
| A20G A45U A75U U80C | 0.61 |
| A20G A64U A75G | 0.12 |
| A20G A35U U48C G55A A57C | 0.24 |
| A20G A28C U51A U78C | 0.26 |
| A20G G42A A65C U66C U72C U78A | 0.12 |
| A20G A35U U60A U72A | 0.07 |
| A20G G36A A57G U60C U69C | 0.3 |
| A20G G22A A35U G46A U74A U76A | 0.21 |
| A20G A28U C29U U78A | 0.08 |
| A20G A64G A75U | 0.78 |
| A20G A35G A64G U80C | 1.14 |
| A20G A47G C59A | 0.31 |
| A20C A21G C44U A47U | 0.19 |
| A20G A28G C59A A64G C81U | 0.14 |
| A20G A35U A45G A65G U69C | 0.26 |
| A20C A45U U67G U78C | 0.41 |
| A20G G24A U31A U54C U66C | 0.17 |
| A20G A28G U60A A65U G70C | 0.07 |

| Variant | self-cleavage |
| --- | --- |
| A20G G36C U60C | 0.16 |
| A20G A65G A75U | 0.46 |
| A20G A35U U51G C62U A64G | 0.09 |
| G19U U41A G73A | 0.06 |
| A20G C38U U41A U49C C68U | 0.1 |
| A20G A28U U31C U41A A64G | 0.33 |
| A20G C27U C29A G33A U80C | 0.1 |
| A20G A21G U31G | 0.09 |
| A20G G33A U49C U51A A56U G73A | 0.05 |
| A20G A47G A56G | 0.43 |
| G19U U43C U49C A65G U78C | 0.08 |
| G19U U26G U41C | 0.12 |
| A20G C40U A65G | 0.14 |
| A20G C40U C59A | 0.25 |
| A20G G42U C44U U54A A56G A57G C71A | 0.06 |
| A20G A47G U49C U72A | 0.17 |
| A20G G42A U43C A57G U78A | 0.4 |
| A20G C27U U60C | 0.27 |
| A20G C37U C40U U67A U69C | 0.19 |
| G19U U26C U48A | 0.19 |
| A20G A21G A35G A64G U72A | 0.22 |
| A20G A21G U26C U80C | 0.27 |
| A20G C37G C62U | 0.09 |
| A20G C39U U60C U69C | 0.42 |

| Variant | self-cleavage |
| --- | --- |
| A20G A35G U41A U51C | 0.41 |
| A20G C23G U26C G42A | 0.08 |
| A20C G24U C40U A65G U72G | 0.1 |
| A20C A35U C62U | 0.32 |
| A20G A21G U66C U67C | 0.3 |
| A20G A21C U25C U67C | 0.17 |
| A20G A45U U49C U51C U69C U80A | 0.15 |
| A20G A45G A64G | 0.45 |
| A20G A47G U72A | 0.18 |
| A20G A45U U72A | 0.15 |
| A20G A45U U72C | 0.13 |
| A20G G42A A56G U76C | 0.1 |
| A20G C39U U78C U80C | 0.21 |
| A20G G33C U43A U78A | 0.09 |
| A20G C39U A45G | 0.28 |
| A20G A21G U25A A28G U80C | 0.08 |
| A20G A45G A47G | 0.24 |
| A20C U41A A65G U69A | 0.13 |
| A20G A28G U48C A56G U69A | 0.1 |
| G19U U31A A35U | 0.13 |
| A20C U26C U72C | 0.49 |
| A20G A28G U43A A56G A65U | 0 |
| A20G C37U U72G | 0.5 |
| A20G A47G U48A A65G A75G | 0.08 |

| Variant | self-cleavage |
| --- | --- |
| A20G A35U U54C | 0.3 |
| A20G A35U A56U C62U | 0.06 |
| A20G A45U U54C G61C A65G U74A | 0.09 |
| A20G G33A U72C U80C | 0.06 |
| A20C U26C C37U G70A | 0.05 |
| A20G C32U U60C | 0.06 |
| A20G A28G C40U U49C U66C U78C | 0.04 |
| A20G C29U C39A U49C G53C U74A | 0.04 |
| A20G A28G A35G C40A A45U U78C | 0.2 |
| A20G C32A U54C A65G | 0.16 |
| A20G G24C A35U U58A U74C | 0.02 |
| A20G G30C U51A U60C U66C U72C U80C | 0.07 |
| A20G C32A U66C | 0.2 |
| G19U U41C A64G U67C | 0.12 |
| A20C U26A G33C U51C A56G U58A A64G | 0.04 |
| A20G G30U C38G U54A U60C | 0.06 |
| A20G A45C U74A | 0.66 |
| A20G A21G A57C | 0.33 |
| A20G A21G A57G | 0.1 |
| A20G A64C U67C | 0.21 |
| A20C U26C U54C C79U | 0.04 |
| A20C U25C G61A | 0.17 |
| A20C U67C A75G U78A | 0.09 |
| A20G A21G C32G U49A U67C U74C U80A | 0.05 |

| Variant | self-cleavage |
| --- | --- |
| A20G G24A U43C U60C U76C | 0.15 |
| A20G C39U C62U G73A | 0.36 |
| A20G A56G A77G | 0.5 |
| A20G A57G U58C U72C U80C | 0.29 |
| A20G C23A G63U U69A A77U | 0.07 |
| A20G A45G U66C | 0.19 |
| A20C U31A U41C U51A G52U U69A A75U | 0.17 |
| A20G A28G U54C | 0.49 |
| A20G A56G A64G U69A | 0.2 |
| A20G G36U U74C | 0.12 |
| A20G A28G U31C U51C | 0.3 |
| A20G C37U U58C U69C U72C U76C | 0.03 |
| A20G C50U U76C | 0.83 |
| A20G C27A A28G U41A G73A | 0.5 |
| A20C A28G U51C A57G U67C | 0.14 |
| A20G G33A U69A | 0.1 |
| A20G A21G U26A U51C G63C G73U U78C | 0.05 |
| A20C U26A U48C U72A | 0.09 |
| A20G A21G U41A | 0.07 |
| A20G C32U A77G | 0.22 |
| A20G A35C U60C A75G A77U | 0.17 |
| A20G C40G U60G U76A | 0.21 |
| A20C U51C U78C | 0.22 |
| G19U U26C U58C | 0.45 |

| Variant | self-cleavage |
| --- | --- |
| A20G C32A U51A | 0.25 |
| A20G C29U U58C U60A C62U U66C | 0.33 |
| A20G G33C U72A U76C | 0.07 |
| A20G A21G U54C | 0.41 |
| A20G G33A A35G A56G | 0.08 |
| A20G A45G U80C | 0.82 |
| A20G G33C U41C A65U | 0.11 |
| A20G A21G U26A A64U | 0.37 |
| A20G G36U U41C | 0.2 |
| A20G C44U U69C | 0.24 |
| A20G A57G U58C | 0.27 |
| A20C U26C U31C U72A | 0.06 |
| A20C C32A A35U U69A | 0.07 |
| A20G G33A C34G A75G | 0.06 |
| A20G A21G U25C U54A U67C | 0.04 |
| A20G C23U U41C | 0.25 |
| A20G A35U U41A | 0.25 |
| A20G A21C U26A G36U U41C | 0.18 |
| A20G G46A U74C | 0.31 |
| A20G G36A U80C | 0.12 |
| A20C U31A A35U U43C U48A U66C A75U | 0.05 |
| A20G A28G U58G U69A U80A | 0.06 |
| A20G A64G A65U | 0.4 |
